Reference: PubChem BioAssay (NCATS)
The shares of active, inactive and inconclusive entries below differ from those in the screen. Potencies of inconclusive entries are left out as doubtful fits. Activity calls are given as the source filed them. Calls follow the shape of the dose curve; as a rule, active = well fitted inhibition curve with a large enough effect; inconclusive = small, poorly fitted or top-dose-only effect; inactive = no such curve, though single readings can be large or run the other way.

biological target: N-terminal Xaa-Pro-Lys N-methyltransferase 1 (Homo sapiens) (UniProt Q9BV86); experiment: Confirmatory qHTS for Inhibitors of N-terminal methyltransferase 1 (NTMT1): MTaseGlo Assay (AID 1645874); details: NTMT1 enzyme, MTase-Glo SAH luminescence; series mostly up to 100 µM; also: nearly all actives have a fitted effect of over 65% in size
Excerpt: Assay Submitter (PI): Rong Huang Ph.D.
Purdue University, West Lafayette, IN 47907
The N-terminal methytransferase 1 is the first methyltransferase that methylates protein alpha-N-amines and plays an important role in regulating cell mitosis, chromatin interactions and DNA repair. It is observed to be over-expressed in various cancer patient tissues like malignant melanoma and colorectal cancer tissues. Knockdown of NTMT1 in cancer cells causes cell mitotic defects and enhances sensitivity to DNA damaging chemotherapeutics. […] These critical cellular processes in which NTMT1 is implicated, coupled with emerging links to cellular dysfunction, strengthen the inference that NTMT1 is a compelling novel anticancer target. Progress have been made in understanding the molecular properties of NTMT1 and the biological consequences of protein alpha-N-terminal methylation, but there are no specific small molecule probes available for NTMT1 to fully characterize its MTase activity. To address this unmet need, a panel of assay is created and established to enable quantitative high-throughput screening (qHTS) for novel, potent, and selective small molecule NTMT1 inhibitors. Two orthogonal qHTS that use different reagents (ThioGlo vs. MTaseGlo) are developed for primary robotic screening against the NCATS chemical library of more than 400,000 small molecules. Identified inhibitors are reacquired, validated, and further characterized.
MTaseGlo Assay is a luminescence screen that measure the activity of methyltransferases based on the reaction product S-adenosyl homocysteine (SAH). The substrate SAM is converted to SAH upon enzyme activation. MTase-Glo reagent and detection solution convert SAH to ATP and measure the light from the luciferase reaction.
Materials: NTMT1 enzyme, substrate SPKRIA, control peptide RCC1-6 is provided by the Huang laboratory.
SEQUENCE No. (e.g., 1, 2, 3, etc.); […] (e.g., Cells, Incubation, Reagent, etc.); VALUE; DESCRIPTION
1; Enzyme; 3 uL; Dispense enzyme mixture (final concentrations of 125 nM NTMT1 and 100 uM SAM) into Greiner 1536-well white / solid bottom assay plate (Greiner Bio One, Monroe, NC).
2; Compounds; 23 nL; Compounds and controls were transferred via a Kalypsys Pin Tool (Wako USA) equipped with a 1536-slotted pin array (Wako Automation, Richmond, VA)
3; Incubation; 15 min; Incubate at room temperature
4; Substrate; 1 uL; Dispense 1 uL of substrate at final concentration of 1 uM. Buffer solution was dispensed in control wells. The assay plate was covered with metal lids.
5; Incubation; 30 min; Incubate at room temperature, protected from lights.
6; Reagent; 1 uL; Dispensed 5x MTase-Glo detection reagent (R) into the assay plate. The plate was covered with metal lids.
7; Incubation; 30 min; Incubate the assay plates at room temperature in the dark to allow for SAH to be converted to ADP.
8; Reagent; 5 uL; Dispense 5 uL of 1x MTase-Glo Detection Solution (R) to allow for ADP to be converted to ATP which was then detected with a luciferase reaction.
9; Centrifuge; 15 sec; Centrifuge the assay plate for 15 seconds at 1000 RPM.
10; Incubation; 30 min; Assay plates were incubation at room temperature in the dark.
11; Detection; Luminescence; Plates were read on ViewLux detector (PerkinElmer). Data were normalized to no-enzyme (0% activity) and no-inhibitor (DMSO; 100%) controls, and the resulting percent inhibition data were fitted to a 4-parameter Hill equation using GraphPad Prism.
Potency is read from the fitted curve at half-maximal effect; tags tell the direction and shape of the fitted curve.

Sequence of UniProt Q9BV86 (Q9BV86 whole entry, looked up): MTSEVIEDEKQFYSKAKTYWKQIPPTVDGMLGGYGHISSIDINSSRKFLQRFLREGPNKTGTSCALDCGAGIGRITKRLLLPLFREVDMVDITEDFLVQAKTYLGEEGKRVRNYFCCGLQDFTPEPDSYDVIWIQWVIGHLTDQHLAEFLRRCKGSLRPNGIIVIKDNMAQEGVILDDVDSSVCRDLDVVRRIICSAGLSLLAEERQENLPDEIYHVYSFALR

| Structure (SMILES) | Potency |
| --- | --- |
| COc1cc2ncnc(Nc3cccc(I)c3)c2cc1OC | inconclusive [inhibitor, partial curve] |
| C=Cc1cc(O)cc2nc(-c3ccc(O)c(F)c3)oc12 | active: 44.7 µM |
| CC(Oc1cc(-n2cnc3ccc(CN4CCN(C)CC4)cc32)sc1C(N)=O)c1ccccc1C(F)(F)F (centres undefined) | active: 21.4 µM |
| Fc1ccccc1CNCc1ccc(-c2ccnc3[nH]ccc23)cc1 | inactive |
| O=C([C@@H]1CCCN(c2ccc3[nH]c(C4(n5cc(Cl)cn5)CC4)nc3n2)C1)N1CCCC1 | inactive |
| COc1ccc2[nH]c(S(=O)Cc3ncc(C)c(OC)c3C)nc2n1 (centres undefined) | active: 35.5 µM |
| NCCOc1cc(C(=O)Nc2cc(OCCN)c3ccccc3n2)nc(C(=O)Nc2cc(OCCN)c3ccccc3n2)c1 | inconclusive [inhibitor, partial curve] |
| Cc1nc(C#Cc2ccnc(Cl)c2)c(C)n1-c1ccc(OC(F)(F)F)cc1 | inconclusive [inhibitor, partial curve] |
| CN(C)c1nc(NC2CCC(NCCc3ccc(Br)cc3OC(F)(F)F)CC2)nc2ccccc12 (centres undefined) | inconclusive [inhibitor, partial curve] |
| CC(C)n1nc(-c2cc3cc(O)ccc3[nH]2)c2c(N)ncnc21 | inconclusive [inhibitor, partial curve] |
| O=C1OC2(c3ccccc31)c1cc(I)c(O)c(I)c1Oc1c2cc(I)c(O)c1I | active: 1.9 µM |
| C/C=C/C=C/C=C/C(=O)O[C@@H]1C=C2COC(=O)[C@]2(O)[C@@]2(C)CCCC(C)(C)[C@H]12 | inactive |
| CC[N+]1(C/C2=C/CCCCCC2)CCC(NC(=O)C2c3cc(Cl)ccc3Oc3ccc(Cl)cc32)CC1 (centres undefined) | inconclusive [inhibitor, partial curve] |
| O=C(Cc1c(F)cccc1F)Nc1cc(OCc2ccc(Cl)cc2)ccn1 | inactive |
| CC/C(=C(\c1ccc(O)cc1)c1ccc(OCCNC)cc1)c1ccccc1 | inconclusive [inhibitor, full curve] |
| CC(=O)Nc1sc2c(c1-c1nc3ccccc3s1)CNC2 | inconclusive [inhibitor, single point] |
| Cc1cc(O)c(-c2ccc([C@@H](C)CN(C)C)cc2)c2c1[nH]c(=O)c1sccc12 | inconclusive [inhibitor, partial curve] |

| Structure (SMILES) | Potency |
| --- | --- |
| Cc1cc(CS(=O)(=O)c2ccccc2)cc(OCc2ccc(CN3CCC[C@@H]3CO)cc2)c1 | inactive |
| CC#C[C@@H](CC(=O)O)c1ccc(OCc2cccc(-c3ccc(C(F)(F)F)cc3)c2)cc1 | inconclusive [inhibitor, partial curve] |
| Nc1ncnc2c1nc(N)n2[C@@H]1O[C@H](CO)[C@@H](O)[C@H]1O | inactive |
| O=C(NCCCNc1nc(Nc2cccc(NC(=O)N3CCCC3)c2)ncc1I)c1cccs1 | active: 6.76 µM |
| NC(=O)c1ncn([C@@H]2O[C@H](CO)[C@@H](O)[C@H]2O)c1N | inconclusive [inhibitor, partial curve] |
| Cc1cnc(Nc2ccc(F)cc2Cl)nc1-c1c[nH]c(C(=O)NC(CO)c2cccc(Cl)c2)c1 (centres undefined) | inactive |
| COc1cc(N2CCC(N3CCN(C)CC3)CC2)ccc1Nc1ncc(Cl)c(-c2c[nH]c3ccccc23)n1 | active: 55.5 µM |
| OCc1ccc(-c2ccc(-c3ccc(CO)s3)o2)s1 | inactive |
| N#Cc1ccc(Nc2nc(-c3ccc(O)cc3O)cs2)cc1C(F)(F)F | inactive |
| O=c1nc(-c2ccccn2)sc2ccccc12 | inactive |
| CCn1c(=O)c(-c2ccn[nH]2)cc2c(C)nc(N)nc21 | inactive |
| Cc1ccc(NC(=O)N2CCN(c3nc(N)nc4sc(-c5cccnc5)nc34)CC2)cc1 | inactive |
| COc1cc2ncnc(Nc3ccc(F)c(Cl)c3)c2cc1OCCCN1CCOCC1 | active: 7.58 µM |
| COc1cc(CCc2ccc(OCC=C(C)C)cc2)cc(OC)c1OC | inactive |
| COc1ccc2cc3c(NC(=O)c4ccco4)nn(C)c3nc2c1 | inactive |
| CN(C)C(=O)Nc1cc(-c2ccccc2)ccc1N(C)C | inactive |
| c1cc(CN2CCCCC2)cc(OCCCNc2nc3ccccc3s2)c1 | inconclusive [inhibitor, partial curve] |
